# Test results from the supplement of paper PMC11417369.
# The list shows a part of the results.
# System: PfAP2-HC AP2 domain (GST-tagged)
# Assay: gcPBM binding intensity (ln(normalized median fluorescence intensity)); higher = stronger DNA binding
# How it was run: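 The highest Masliner-normalised natural-log median intensity across replicate spots of either probe orientation is reported as binding intensity. GST-tagged P. falciparum DNA-binding domains expressed in E. coli were applied for 1 h to an Agilent 4 × 180k array of primer-extended double-stranded 36-bp intergenic genomic probes plus negative controls, and bound protein was detected with Alexa488 anti-GST antibody and scanned at 488 nm.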
row,Sequence,gcPBM binding intensity (ln)
1,TGTATAACCTGTGTTACACACATTATGATTTATATA [CACACA_site525],10.2
2,CATTTTTACCGGTACTGTACATAAAAAAAAAAAAAG [XGTACX_site1548],9.59
3,TTATATGTTTTACAACGTACACAAAAAAAACTTATA [XGTACX_site4413],9.41
4,AGTTATATGGTTAATACACACAACAAATGTTTCTTC [CACACA_site6642],9.76
5,GTGTGATGGTACAATATACACACTTAAAAAAAAAAA [CACACA_site8769],9.72
6,AAAAAATATATTTGCACACTCAAAAAAAAAAAAAAA [CACACA_site859],9.46
7,ATACATAAAATTAAAACACACATTTTATTAAATACG [CACACA_site2167],9.73
8,TAAGAAATAAATAGTACACACATAGACACACGCACA [CACACA_site6821],10.7
9,AATATAACTTAGAATTGTACATAAAAAAAAATATAT [XGTACX_site3313],9.75
10,TATAAAATACATTTATAATATATATATATATTTTTT [TGCATGCA_negctrl_site435],9.59
11,ATATGAAATATATAAATATGTTTATATATATATATA [GTGCAC_negctrl_site94],9.5
12,ATTTATTTATACAAAGTGCAATATTTTGTTAAAGTC [GTGCAC_site9618],9.63
13,AAACAAAATATGGTTCATGAGCAAAAGTTTATTTTG [XGTACX_negctrl_site531],9.74
14,AATGTAAAATATAAATGTACATATATATATATATAT [XGTACX_site5071],9.65
15,CTCTTTTCTTATAATACACACAGTAATATATATATA [CACACA_site1520],9.87
16,ATACATATATATATATGTACACATAAACATGAGTGA [XGTACX_site3200],9.85
17,TAATGGAAACCATTTATTTTCTGCAATATATTTTTT [CACACA_negctrl_site1653],9.47
18,TGTGTTTATACGTTTTGTACATATTTTTATTTTGTA [XGTACX_site6425],9.74
19,TTTACATCAACCTTTTCACACATTCATATACAGATA [CACACA_site6152],9.68
20,TTCAAAAAATAAAATAATAATATATATATAAATATA [XGTACX_negctrl_site84],9.49
21,TCATTAAAGGAAAAATGTACGTATAAATAAATATAT [XGTACX_site2587],9.6
22,TTTTTTATATTTAAACTTCACATGGTTTTCATTTAT [XGTACX_negctrl_site291],9.92

row,Sequence,gcPBM binding intensity (ln)
1,ATGTAGGTTAATTATTGTACGTAGGGGGTGTATATT [XGTACX_site3973],10
2,TTCAGAGAATAAAAATGTACATATAATATTTTAAAA [XGTACX_site577],9.55
3,CTCTTGTCATTTTGCACACACACATGTATAGGTTAT [CACACA_site3057],10.2
4,TAAATTTGTGGGATTTCACACAGGTTTATTTACATT [CACACA_site5455],9.75
5,TTGCTTATTAAATGGGGTACATTATATATATATATA [XGTACX_site2515],9.74
6,GTGTTAACTATTATGAGTACTTATGTATTAATTCAT [XGTACX_site7767],9.66
7,TTTCTAATTTATATCACACACATATATTTATAGTAA [CACACA_site6280],9.77
8,GTTTACTAATATTGCACACGAATATGAAAAAGAGAA [CACACA_site2897],9.94
9,AGAGTATATAAAGTAACACACAATAAAATAAAATAA [CACACA_site2328],10.3
10,CATATAGTATAAATTTGTACATAAATATATATATAT [XGTACX_site7477],9.65
11,ATAATATCTTCTTTTTTTTTTTTTTTTTTTTTTTTT [CACACA_negctrl_site1005],9.23
12,AAAAAAAAAAAAAAAAGTACATATATATATAATTAT [XGTACX_site7836],9.9
13,AAATGATGCATTTGTCATTAAAATTGTGAAATATTA [CACACA_negctrl_site231],9.44
14,ATATATATATAATGTGTACACACATATGTATTTATA [CACACA_site8170],9.99
15,TAATTAAGATGATAAAAATTGAAAAAACAATTTTAA [CACACA_negctrl_site658],9.23
16,TATAATAAAATATGTACACACATACAGACATATATA [CACACA_site6693],9.99
17,CTGTTTTACTTTAGTAGTACAATAAAAATATAAAAA [XGTACX_site2934],9.36
18,TATTACCCATATTATACACACATATATTATATATAT [CACACA_site1567],10.2
19,AAAAAAAAAAAACATACACACAAATATATACATACA [CACACA_site4011],10.2
20,TACATACACGGACACACACACATATATATATATATA [CACACA_site5883],10.7
21,AAGAAATATATATATATATATATATATATATATGTA [TGCATGCA_negctrl_site442],9.75
22,TAATTTTATATTAAAAGTACATAATAAAAACTATAA [XGTACX_site8779],9.48

row,Sequence,gcPBM binding intensity (ln)
1,TTTAAAAACAAATATTGTACAAATTAAAATATATCA [XGTACX_site7220],9.6
2,AGAGCATAATAAAACACACACATACATACAGATATA [CACACA_site4671],10.3
3,TGATGATATAAAAACACACACATATAATATAATACT [CACACA_site1208],10.8
4,CACTAATATATATACAGTACATAATAAAGTATATAA [XGTACX_site6875],9.71
5,TTATATTTATAAAGGTGTACCTTAAAATGATTTTAC [XGTACX_site3774],9.38
6,AAAATTAAATAAAAATGTACAGAAATATTATATGAA [XGTACX_site5695],9.76
7,ATATATTATATTAATTGTACATAAAAAAGAGAAAAA [XGTACX_site3366],9.62
8,ATGTATAAACAAAAGGGTACATATATATATATATAT [XGTACX_site2087],9.69
9,AGAAAAATTACAAAATGTACATAATGTGTTATTAAT [XGTACX_site7877],9.72
10,ATTAAGTACTAAAAAGTGCAGTTCGGTACTGTGCTT [GTGCAC_site9755],9.65
11,AATAAAAAACATGAAAGTACTTTAAAAAAGGTAATA [XGTACX_site1897],10.1
12,AAGTACATACATAAAACACACACATATATATATATA [CACACA_site8541],10
13,AATATATAAATCAATAGTACATATATATATATATAT [XGTACX_site3898],9.6
14,ATTAAATATGAGGGAACACACACATGATATATAAAT [CACACA_site8755],10.3
15,TTATATAAAGAATGTACACACAGAAATGCACCCACA [CACACA_site2282],10.6
16,CCAAAAAATATATGTAGTACTACATTATTAAATATG [XGTACX_site5128],9.65
17,AAAAAAAACACGCGCACACACACACCCACAGACACA [CACACA_site5253],10.7
18,TATATATATAAATACACACACACACCCCAAAGCGTA [CACACA_site4211],10.6
19,TATTTTTTAAAAAATTATAAATAAAATTATATTACG [CACACA_negctrl_site324],9.28
20,TATAATATATTCACTCGTACATATTTAATAATATCT [XGTACX_site6209],9.64
21,ACAGTATATTAAAAAATACACACGTATTATATCTAC [CACACA_site2640],9.83
22,AAATTCAATTTGCGCTGTACATGAAGATATAAATTT [XGTACX_site4844],9.71

row,Sequence,gcPBM binding intensity (ln)
1,ATACCTGTTGTGTTACGTACATAATTTTAATGTTTG [XGTACX_site8181],9.93
2,TTTTAATTAAATAAATGTACTCATTCTATTATTTAT [XGTACX_site3032],9.63
3,ATAAATTTTTTATGAACACACAAATACCCACGCTCA [CACACA_site2659],9.88
4,TATTACACATATTATGTGCACATATATAATCAATAT,9.78
5,ATTTTATTTTTGTGCACACTGATAAATTGAAAAGAG [CACACA_site2948],9.61
6,TATATATATATAATATGTACATATATTAAGCATTTT [XGTACX_site4470],9.73
7,AAAAAAAAAAATTAAAGTACTAATTAAAATTATATG [XGTACX_site5289],9.38
8,TTATATATATGTGTATGTACATATATATATATATAT [XGTACX_site1141],9.87
9,AAAAGAATAATAATTTATGTATATTAATTAAAGAAT [XGTACX_negctrl_site402],9.69
10,TATCATATATTATATGCACACATGTTTTTCAAGAAT [CACACA_site1892],9.74
11,TATATAATATTCTACACACCAACAACAAACATATAT [CACACA_site567],10
12,ATATTCTGATTTTAGATGCACTTCGTTAACAAAATA [GTGCAC_site9958],9.41
13,ATATATATATTTATATGTACATAATATAAAATTTCT [XGTACX_site3720],9.63
14,ATAAATCTACACCGCACACAAAAACAACAAATATTA [CACACA_site5396],10.1
15,AATGAATATATATAAATATATATATATATATATATA [CACACA_negctrl_site1494],9.48
16,ATATTTGTATAAATTGCACACTTTATTTTTTTTAAG [CACACA_site1558],9.61
17,ATGTTATTACATAATTGTACATTTTGAGCAATTAAG [XGTACX_site4640],9.51
18,AAACGTAACATATATATATATATATATAAGATATAT [CACACA_negctrl_site126],9.69
19,TTAGCTTTTTTTTAAACATGCAACTACTTGATCCAC [TGCATGCA_site1017],9.5
20,TTTTTTTTTTTTTCTTCACACACAGTACTACTATTT [CACACA_site8759],10.1
21,GGTATATGCATAAAGAGTACGTAACTTCTTTTTGTT [XGTACX_site6344],9.7
22,ATAAGATGATTAATTACACACTTTATAGGATATTTA [CACACA_site1711],9.6
